# Test results: PubChem BioAssay (NCATS)
# The shares of active, inactive and inconclusive entries below differ from those in the screen. Potencies of inconclusive entries are doubtful fits and often do not repeat. Active and inactive are the calls of the source. Calls follow the shape of the dose curve; as a rule, active = well fitted inhibition curve with a large enough effect; inconclusive = small, poorly fitted or top-dose-only effect; inactive = flat fitted curve, though single readings scatter. Square brackets hold non-standard residues; d marks the D form. Peptide text beside a SMILES is read from it. ξ: configuration not given here. ξLac(3-iPr) = CC(C)CC(O)C(=O)O; NMeV = CN[CH](C(=O)O)C(C)C; NMeA = CN[CH](C)C(=O)O; βAla = NCCC(=O)O
# Tested on: KB-3-1
# Assay: Cytotoxic Profiling of Annotated Libraries Using Quantitative High-Throughput Screening (AID 1296008); also: nearly all actives have a fitted effect of over 60% in size
# Conditions: Five cell lines viability, CellTiter-Glo ATP luminescence, 48-72 h; max response: active compounds read low
# Procedure, shortened: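 Cells exposed to compounds for 48 or 72 hr at 37 degrees Celsius. Viability read as ATP-coupled luminescence with CellTiter-Glo after 10 min at room temperature.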
# % is scaled to controls: 0 for no effect and ±100 for the full control effect; potency is read from the fitted curve at half-maximal effect; tags tell the direction and shape of the fitted curve.
Structure (SMILES),Potency,max response,outcome
CC(=Cc1csc(C)n1)[C@@H]1C[C@H]2O[C@]2(C)CCC[C@H](C)[C@@H](O)[C@@H](C)C(=O)C(C)(C)[C@@H](O)CC(=O)O1,active: 0.0001 µM,–,–
COc1ccc2[nH]c(-c3ccccc3)c(CCN(C)C)c2c1,"inconclusive: 6.51 µM [inhibitor, single point]",–,–
O=C1CN=C(c2ccccc2Cl)c2cc(Br)ccc2N1,"inconclusive: 23.1 µM [inhibitor, single point]",–,–
CCC(=O)O[C@](Cc1ccccc1)(c1ccccc1)[C@H](C)CN(C)C,–,inactive: 0.566%,–
CSCC[C@@H](NC(=O)[C@@H](Cc1ccccc1)NC(=O)CNC(=O)CNC(=O)[C@@H](N)Cc1ccc(O)cc1)C(=O)O,–,inactive: 3.04%,–
CS[C@]1(CO)C(=O)N2[C@H]3C(=CC=C[C@@H]3O)C[C@@]2(SC)C(=O)N1C,–,–,inactive
C=C(C)[C@H]1O[C@H]2CC[C@@]3(C)[C@@](O)(CC[C@H]4[C@@H]5OC(C)(C)[C@H]6C[C@@H]7C(=C)Cc8c(Cl)cc9[nH]c(c5c9c8[C@@]76O)[C@@]43C)[C@]23O[C@@H]3[C@H]1O,–,–,inactive
ClC1=C(Cl)[C@]2(Cl)[C@@H]3[C@H]4C[C@H]([C@@H]5O[C@H]45)[C@@H]3[C@@]1(Cl)C2(Cl)Cl,–,inactive: -3.16%,–
CCC1(O)CCC2C3CCC4=CC(=O)CCC4C3CCC21CC (stereo not given),–,inactive: -10.9%,–
O=[N+]([O-])c1c2ccccc2cc2ccccc12,–,inactive: -16.7%,–
CN(CC[C@H](N)CC(=O)N[C@H]1C=C[C@@H](n2ccc(N)nc2=O)O[C@@H]1C(=O)O)C(=N)N,"inconclusive: 5.31 µM [inhibitor, single point]",–,–
CCC(C)C1NC(=O)C2CCCN2C(=O)C(CC(C)C)OC(=O)CCNC(=O)C(C)N(C)C(=O)C(C(C)C)N(C)C1=O (stereo not given) (cyclo([ξLac(3-iPr)]PI[NMeV][NMeA][βAla]); configuration not given here),"inconclusive: 9.68 µM [inhibitor, single point]",–,–
CC[C@@H]1/C=C/C=C/C[C@H](C)C(O)[C@](C)(O)C(=O)[C@H](C)C(O)[C@H](C)C(=O)[C@H](C)[C@@H](O)[C@H](C)/C=C/C(=O)O[C@H]2[C@@H](C)[C@@H](CC1)O[C@]1(O[C@H](C[C@H](C)O)[C@H](C)CC1=O)[C@@H]2C (stereo not given in full),active: 0.0491 µM,–,–
COc1ccc(C(=O)c2c(C)n(CCN3CCOCC3)c3cc(I)ccc23)cc1,"inconclusive: 33.2 µM [inhibitor, single point]",–,–
CO[C@H]1[C@@H](O)C[C@H](O[C@H]2[C@@H](O)C[C@H](O[C@H]3[C@@H](O)C[C@H](O[C@H]4CC[C@@]5(C)[C@H](CC[C@@H]6[C@@H]5C[C@@H](O)[C@]5(C)[C@@H](C7=CC(=O)OC7)CC[C@]65O)C4)O[C@@H]3C)O[C@@H]2C)O[C@@H]1C,"inconclusive: 0.116 µM [inhibitor, full curve]",–,–
C=CCN1CCC2(C)c3cc(O)ccc3C[C@H]1[C@H]2C,–,inactive: 1.41%,–
CC(C)[C@]12O[C@@H]1[C@@H]1O[C@]13[C@]1(O[C@H]1C[C@@H]1C4=C(CC[C@@]13C)C(=O)OC4)[C@H]2O,active: 0.001 µM,–,–
CN1CCc2cc3c(cc2[C@H]1[C@@H]1OC(=O)c2c1ccc1c2OCO1)OCO3,–,–,inactive
C[C@]12CC[C@@H]3[C@@H](CCC4=CC(=O)CC[C@@H]43)[C@@H]1CC[C@@H]2OC(=O)CCc1ccccc1,"inconclusive: 29.1 µM [inhibitor, single point]",–,–
CC1N=C(N)OC1c1ccccc1 (stereo not given),–,inactive: -3.1%,–

Structure (SMILES),Potency,max response,outcome
CN(C(=O)Cc1ccccc1)C(CN1CCCC1)c1ccccc1 (stereo not given),–,inactive: -9.97%,–
COC1CC(O[C@H]2CC[C@]3(C=O)C4CC[C@]5(C)[C@@H](C6=CC(=O)OC6)CC[C@]5(O)[C@@H]4CC[C@@H]3C2)OC(C)C1O[C@@H]1O[C@H](CO)[C@@H](O[C@@H]2O[C@H](CO)[C@@H](O)[C@H](O)[C@H]2O)[C@H](O)[C@H]1O (stereo not given in full),active: 0.174 µM,–,–
CC1=C2C[C@@H]3[C@@H](CC=C4C[C@@H](O)CC[C@@]43C)[C@@H]2CC[C@]12O[C@H]1C[C@H](C)CN[C@H]1[C@H]2C,–,inactive: 6.86%,–
O=[N+]([O-])c1ncc[nH]1,"inconclusive: 16.6 µM [inhibitor, partial curve]",–,–
COC(=O)CC1CC2(C(=O)c3c(O)cccc3C2(O)C(=O)OC)C(C)O1 (stereo not given),–,inactive: 3.88%,–
CC[C@H]1CN2CC[C@H]1C[C@@H]2[C@@H](O)c1ccnc2ccc(OC)cc12,–,inactive: 5.11%,–
C[C@]12CC[C@@H](O[C@@H]3O[C@H](CO)[C@@H](O)[C@H](O)[C@H]3O)C[C@@]1(O)CCC1C2CC[C@]2(C)[C@@H](C3=CC(=O)OC3)CC[C@]12O (stereo not given in full),active: 0.2 µM,–,–
CC(C)(O)C(=O)Nc1ccc([N+](=O)[O-])c(C(F)(F)F)c1,–,inactive: -3.83%,–
CCC(=O)OC1CCC2C3CCC4=CC(=O)CC[C@@]4(C)C3CC[C@]12C (stereo not given in full),–,–,inactive
Clc1ccc(N2C[C@H]3CC[C@@H](C2)N3)nn1,–,inactive: 2.38%,–
CCC1NC(=O)C2C(Cl)C(Cl)CN2C(=O)C(CC)NC(=O)CC(c2ccccc2)NC(=O)C(CO)NC1=O (stereo not given),"inconclusive: 14.2 µM [inhibitor, single point]",–,–
CC1=CC2/C=C(\C)CCCC(O)/C=C/C(=O)OC23C(=O)NC(CC(C)C)C3C1C (stereo not given),–,–,inactive
C=C[C@@H]1CN2CCC1C[C@H]2[C@H](O)c1ccnc2ccccc12 (stereo not given in full),"inconclusive: 33.2 µM [inhibitor, single point]",–,–
COC1CC(OC2CCC3(C=O)C(CCC4C3CCC3(C)C(C5=CC(=O)OC5)CCC43O)C2)OC(C)C1O (stereo not given),active: 0.252 µM,–,–
CC(=O)O[C@H]1CC[C@@]2(CI)C(=CC[C@@H]3[C@@H]2CC[C@]2(C)C(=O)CC[C@@H]32)C1,"inconclusive: 20.6 µM [inhibitor, single point]",–,–
CN1[C@H]2CC(O)C[C@H]1[C@H]1O[C@H]12 (stereo not given in full),"inconclusive: 33.2 µM [inhibitor, single point]",–,–
CC[C@@H](C)[C@H]1C(=O)O[C@H](C(C)C)C(=O)N(C)[C@@H]([C@@H](C)CC)C(=O)O[C@H](C(C)C)C(=O)N(C)[C@@H]([C@H](C)CC)C(=O)O[C@H](C(C)C)C(=O)N1C,"inconclusive: 8.62 µM [inhibitor, single point]",–,–
C[C@@]12OC(=O)[C@]1([C@@H](O)[C@@H]1C=CCCC1)NC(=O)[C@H]2CCCl,active: 0.418 µM,–,–
C[C@]12CC[C@H](O[C@@H]3O[C@H](CO)[C@@H](O)[C@H](O)[C@H]3O)CC1CC[C@@H]1C2CC[C@]2(C)[C@@H](C3=CC(=O)OC3)CC[C@]12O (stereo not given in full),"inconclusive: 14.2 µM [inhibitor, single point]",–,–
CCC(C)(OC(C)=O)C(=O)O[C@H]1[C@H](OC(C)=O)C[C@@H]2[C@@](C)([C@@H]3C[C@H]4C=CO[C@H]4O3)[C@H](C)C[C@H](OC(C)=O)[C@@]2(COC(C)=O)[C@@]12CO2 (stereo not given in full),–,inactive: 8.14%,–
